# Results: PubChem BioAssay AID463173 (ICCB-Longwood Screening Facility, Harvard Medical School, 2010)
# The campaign covered roughly 52,000 compounds. About 4,300 (8.3%) were called active. No stated cut-off is given here; in the data, active means survival mostly below about 52% (no sharp cut-off); inactive means mostly above about 56%. This is one part of the list.
# System: DeltatarO mutant
# Experiment: growth inhibition of S. aureus wild type versus tarO mutant, primary screen, teichoic acid synthesis inhibitors, RN4220, OD600 (AID 463173)
# Conditions: OD600, 18 h, stronger effect = lower value, screened at 18.75 µg/mL (by protocol)
row,SMILES,survival
1,COc1ccc2[nH]cc(CCNC(=O)Nc3cccc(F)c3)c2c1,inactive: 94%
2,CC(C)=CCC(C)(C)C1OCCN1C(=O)Nc1ccccc1 (stereo not drawn),inactive: 95%
3,COc1ccc(Nc2nc3c(S(=O)(=O)c4ccc(Br)cc4)nnn3c3ccsc23)c(OC)c1,inactive: 48%
4,CC1CCN(c2cc3c(cc2F)c(=O)c(S(=O)(=O)c2ccc(Cl)cc2)cn3C)CC1,inactive: 99%
5,Cc1ccc(CNc2oc(-c3ccc(COc4ccc(Cl)cc4)o3)nc2C#N)cc1,inactive: 59%
6,CCOC(=O)c1c(NC(=O)c2cc(-c3ccc(Cl)cc3)on2)sc2c1CCCC2,inactive: 68%
7,CNC(=S)N1C2CCC1CC(NC(=O)NC13CC4CC(CC(C4)C1)C3)C2 (stereo not drawn),inactive: 79%
8,CC1CCCN(CC(O)CN)C1 (stereo not drawn),inactive: 96%
9,CCOc1ccc(-c2cc3nc(C4CCN(C(=O)OC(C)(C)C)CC4)c(C(=O)Nc4ccc(C)c(F)c4)cn3n2)cc1,inactive: 78%
10,CCC(=O)N1CCc2cc(Br)cc(S(=O)(=O)N3CCC(C(=O)N(CC)CC)CC3)c21,inactive: 90%
11,CCn1cc(C(=O)N2CCN(c3cc(Cl)ccc3C)CC2)c(=O)c2cc(S(=O)(=O)N3CCOCC3)ccc21,inactive: 77%
12,CCc1ccc(NC(=O)C2CCC(CNS(=O)(=O)c3cccs3)CC2)cc1 (stereo not drawn),inactive: 94%
13,COc1cccc(CNC(=O)c2ccc3c(c2)N(C)C(=O)C2CCCCN32)c1 (stereo not drawn),inactive: 72%
14,COc1ccc(-c2nc(SCC(=O)Nc3ccc4c(c3)OCO4)c(-c3ccccc3)[nH]2)cc1,inactive: 75%
15,COc1ccccc1NC(=O)C1=C(C)Nc2nc(-c3ccco3)nn2C1c1ccccc1 (stereo not drawn),inactive: 74%
16,Cc1ccccc1NC(=O)c1c(NC(=O)c2ccncc2)sc2c1CCC(C(C)(C)C)C2 (stereo not drawn),inactive: 110%
17,Cc1ccc(NC(=O)CN(C)S(=O)(=O)c2cccc3cccnc23)cc1F,inactive: 63%
18,COc1ccc(Cl)cc1Nc1nc2ccc(C(=O)c3ccccc3)cc2n2cnnc12,inactive: 60%
19,CCOC(=O)Cc1ccc(NC(=O)N2CCc3c(sc4c3CCCC4)C2c2ccc(F)cc2)cc1 (stereo not drawn),inactive: 91%
20,CCn1c(=O)c2cc(C(=O)N3CCN(c4cccc(OC)c4)CC3)sc2c2ccccc21,active: 53%
21,CCc1ccc(C(c2ccccc2)c2c[nH]c3ccc(C)cc23)s1 (stereo not drawn),inactive: 69%
22,CN(CC(=O)Nc1ccc(Cl)cc1F)S(=O)(=O)c1ccc2c(c1)n(C)c(=O)c(=O)n2C,inactive: 115%

row,SMILES,survival
1,Cc1sc2ncn(CC(=O)N3CCN(c4ccccc4)CC3)c(=O)c2c1S(=O)(=O)N1CCN(c2ncccn2)CC1,inactive: 126%
2,CCc1cccc(-n2nnc(-c3nsc(NC(=O)c4ccc(C)cc4)n3)c2C)c1,inactive: 54%
3,Cc1ccccc1NC(=O)C(=O)NCC1(c2ccccc2)CCCC1,inactive: 73%
4,CCN1CCN(c2ncc3c(n2)CCN(Cc2sccc2C)C3)CC1,inactive: 67%
5,O=C(CSc1nnc2scc(-c3ccc(Cl)cc3)n12)Nc1cccc(C(F)(F)F)c1,inactive: 58%
6,COc1cc(NC(=O)CC(C)S(=O)(=O)c2ccc3c(c2)CCN3C(C)=O)cc(OC)c1OC (stereo not drawn),inactive: 92%
7,CCOc1ccc(Nc2nc(C)c(NC(=O)c3ccc(C)cc3)c(Nc3ccc(OCC)cc3)n2)cc1,inactive: 123%
8,O=C(CSc1nnc(Cc2ccccc2)n1Cc1ccccc1)N1CCCC1,inactive: 77%
9,CCc1ccc(CNC(=O)CSc2c3c(nc4ccc(Cl)cc24)CCCC3)cc1,inactive: 63%
10,O=C(NCCn1cc(SCc2ccccc2F)c2ccccc21)c1cccs1,inactive: 54%
11,CCS(=O)(=O)NCC(c1ccco1)N1CCN(c2ccccc2)CC1 (stereo not drawn),inactive: 97%
12,CSc1nc(Nc2ccc(C)cc2)c(C#N)c(-c2ccccc2)n1,inactive: 104%
13,Cc1ccc2c(c1)C(c1ccccc1)N(C(=O)c1ccc(S(=O)(=O)N3CCCCC3)cc1)CC(=O)N2 (stereo not drawn),inactive: 85%
14,Fc1ccc(C(Nc2ccccc2Cl)c2nnc(-c3ccccc3Cl)o2)cc1 (stereo not drawn),inactive: 83%
15,Cc1ccc(NC(=O)[C@H]2O[C@@H]3OC(C)(C)O[C@@H]3[C@H]3OC(C)(C)O[C@H]32)cc1F,inactive: 97%
16,Cc1ccc(NC(=O)c2cccc(N3CCCS3(=O)=O)c2)cc1C,inactive: 89%
17,CC(C(=O)Nc1ccccc1C(F)(F)F)n1nnc2sc3c(c2c1=O)CCCC3 (stereo not drawn),inactive: 81%
18,O=C(N/C(=C\c1ccc(F)cc1)C(=O)N1CCOCC1)c1ccccc1,inactive: 98%
19,COc1ccccc1CNS(=O)(=O)c1cc(Br)cc2c1N(C(C)=O)C(C)C2 (stereo not drawn),inactive: 53%
20,O=C(Cc1cccs1)Nc1ccccc1,inactive: 70%
21,COc1cc(Cl)c(NC(=O)c2cc(CN3CCCC3)on2)c(OC)c1,inactive: 94%
22,CCc1ccc(CNC(=O)C2CCCN(c3nnc(C)c4c(C)n(-c5ccc(OC)cc5)nc34)C2)cc1 (stereo not drawn),inactive: 94%

row,SMILES,survival
1,Cc1ccc(N2CC(c3nnc(Cc4ccc(F)cc4)o3)CC2=O)cc1 (stereo not drawn),active: 24%
2,O=c1c(=O)n(-c2ccccc2)ccn1Cc1cccc(C(F)(F)F)c1,inactive: 107%
3,O=C(NCc1ccc(F)cc1)c1ccc(CS(=O)Cc2ccc(Cl)cc2)o1 (stereo not drawn),inactive: 110%
4,Cc1ccc(NC(=O)c2cc3nc(-c4ccc5c(c4)OCO5)cc(C(F)(F)F)n3n2)cc1Cl,inactive: 85%
5,COC(=O)c1ccc(NS(=O)(=O)c2c(C)nc3sccn3c2=O)cc1,active: 72%
6,COc1cccc(-n2ccnc2SCC(=O)Nc2ccc(Cl)c(Cl)c2)c1,inactive: 125%
7,COc1ccc(C2CC(=O)c3cnc4c(-c5ccccc5)c(C)nn4c3C2)cc1OC (stereo not drawn),inactive: 54%
8,O=C(CSc1nccn1-c1ccc(Cl)cc1)Nc1cccc2ccccc12,inactive: 95%
9,CC(CCc1ccccc1)NC(=O)Cn1c(=O)nc(-c2ccccc2F)c2cc(Cl)ccc21 (stereo not drawn),inactive: 75%
10,COc1ccc(Cn2ccnc2SCC(=O)NC2CCCC2)cc1,inactive: 95%
11,Cc1oc(-c2ccccc2F)nc1CSCC(=O)NCc1ccccc1,active: 41%
12,Cc1cccc(C)c1NC(=O)CSc1ncc2c(n1)-c1ccc(Cl)cc1N(Cc1ccccc1)S2(=O)=O,active: 0%
13,CC(C)c1ccc(NC(=O)C2CCCN(S(=O)(=O)c3cccc4nsnc34)C2)cc1 (stereo not drawn),inactive: 70%
14,COc1ccc2c(c1)CC(C(=O)Nc1cccc(C)c1C)CO2 (stereo not drawn),inactive: 87%
15,O=C(COc1ccccc1Cl)OCc1cc(=O)n2nc(C3CCCCC3)sc2n1,inactive: 94%
16,Cc1ccc(CNC(=O)c2ccc3c(c2)c(C)c(C)n3Cc2ccccc2)o1,inactive: 86%
17,CC(C)OCCCNC(=O)c1cn(C)c2ccc(S(=O)(=O)N3CCCCCC3)cc2c1=O,inactive: 125%
18,CCn1ccc2cc(S(=O)(=O)N3CCC(C(=O)NCCc4ccccc4Cl)CC3)ccc21,inactive: 94%
19,CC1Cc2cc(S(=O)(=O)NCCc3ccc(Cl)cc3)ccc2N1C(=O)C1CCC1 (stereo not drawn),inactive: 67%
20,Cc1c2cnn(CC(=O)NCC(C)c3ccccc3)c(=O)c2c(C)n1Cc1cccc(Cl)c1 (stereo not drawn),inactive: 77%
21,Cc1cccc(S(=O)(=O)c2cn(Cc3ccccc3)c3cc(N4CCOCC4)c(F)cc3c2=O)c1,inactive: 84%
22,CC(C)C(Nc1ncnc2c1oc1ccccc12)C(=O)O (stereo not drawn),inactive: 113%

row,SMILES,survival
1,COc1ccc(CNC(=O)C(C)Sc2nc(-c3ccccc3)cc(C(F)(F)F)n2)cc1 (stereo not drawn),inactive: 165%
2,O=C(NC1CCCC1)c1ccc(CSc2nc3ccncc3n2Cc2cccc(F)c2)cc1,inactive: 60%
3,CCOc1cc(C(=O)NCc2ccc3c(c2)CCN3C(=O)c2ccc(F)cc2)cc(OCC)c1OCC,inactive: 120%
4,CCCCOc1ccc(C(=O)Nc2ccc3oc(-c4cccnc4)nc3c2)cc1,inactive: 69%
5,COc1ccc(OCC(=O)N2CCC(c3nc4ccccc4s3)CC2)cc1,inactive: 68%
6,Cc1ccc(-n2ncc(C(=O)NCc3cccs3)c2C2CCN(C(=O)OC(C)(C)C)CC2)cc1,inactive: 99%
7,COc1ccccc1NC(=O)C(C)Sc1nnc2ccc3ccccc3n12 (stereo not drawn),inactive: 79%
8,Cc1ccc(CNC(=O)CN2C(=O)CCn3nc(-c4ccccc4)cc32)cc1,inactive: 72%
9,CC1(C(=O)O)CCC(C(=O)N2CCCCC2)C1(C)C (stereo not drawn),inactive: 93%
10,Cc1oc2ccc(O)c(CN3CCCC3)c2c1C(=O)Nc1ccccc1,inactive: 74%
11,Cc1cccc(N2CCN(C(=O)C3CCCN(S(=O)(=O)c4ccc5c(c4)oc(=O)n5C)C3)CC2)c1C (stereo not drawn),inactive: 84%
12,Cc1ccc(Cl)cc1NS(=O)(=O)c1ccc2c(c1)NC(=O)CCS2,inactive: 86%
13,COCCOC(=O)C1=C(C)NC(=O)NC1c1cn(-c2ccccc2)nc1-c1ccccc1 (stereo not drawn),inactive: 57%
14,CC1Cc2cc(S(=O)(=O)CCC(=O)NCc3ccc(Cl)cc3)ccc2N1C(=O)C1CC1 (stereo not drawn),inactive: 94%
15,Cc1ccc(CNCC(C)O)s1 (stereo not drawn),inactive: 73%
16,O=C(CS(=O)(=O)Cc1ccccc1)Nc1ccccn1,inactive: 105%
17,COc1ccc(OC)c(CCNC(=O)CCc2cn(Cc3cc(C)ccc3C)c3ccccc23)c1,inactive: 71%
18,O=C1Nc2ccccc2N(O)N1c1ccccc1Cl,inactive: 90%
19,CNc1nc(OCC#N)nc(N2CCCCC2)n1,inactive: 110%
20,COc1ccc(NC(=O)c2sc3nc(-c4cc5ccc(OC)cc5oc4=O)[nH]c(=O)c3c2C)cc1,active: 46%
21,CCCCN(CC)CCNC(=O)CCn1cnc2onc(-c3ccc(F)cc3)c2c1=O,inactive: 81%
22,Cc1cccc(-n2cc(-c3ccccc3)c3c(N4CCC(C)CC4)ncnc32)c1,inactive: 90%
